Laboratory results as given in the supplement of paper PMC4967469.
IC50 is the fitted dose that halves viability relative to control wells, and lower means more sensitive; a limit (>, <) means that the fit lies beyond the doses tested. AUC, from the same fit, is the share of area under the viability curve across the 256-fold dose range: 1 means no effect, lower means more sensitive. For some assays here: An inferred top dose was calculated from the reported fits. For some assays here: An entry number marks a drug with two screens in the source, which often give different values.

Legend:
Experiment in all cases: Viability of human cancer cell lines after 72 h of drug (GDSC screen)
CUDC-101 = compound: C#Cc1cccc(Nc2ncnc3cc(OC)c(OCCCCCCC(=O)NO)cc23)c1 [CUDC-101]; conditions: top dose 5.12 µM; top dose inferred
Procedure: (§1)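 Human cancer cell lines in 384-well plates, medium with 10% serum, drug for 72 h over a 256-fold dose range (nine 2-fold or five 4-fold steps up to the top dose). Adherent lines were fixed and stained with the nucleic acid dye Syto60, suspension lines read with resazurin; signal relative to control wells, capped at 0 and 100%. One two-parameter sigmoid per drug and line, fitted in a mixed model over all curves with the slope shared within a line.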

AC220 = compound: CC(C)(C)c1cc(NC(=O)Nc2ccc(-c3cn4c(n3)sc3cc(OCCN5CCOCC5)ccc34)cc2)no1 [AC220]; conditions: top dose 1.024 µM; top dose inferred
Procedure: as §1

RDEA119 = compound: COc1cc(F)c(F)c(Nc2ccc(I)cc2F)c1NS(=O)(=O)C1(C[C@H](O)CO)CC1 [RDEA119]; conditions: top dose 5 µM, top dose inferred
Procedure: as §1

JNK-9L = compound: Fc1cc(-c2ccnc(Nc3ccc(-n4cnc(N5CCOCC5)n4)cc3)n2)cc(N2CCOCC2)c1 [JNK-9L]; conditions: top dose 5.12 µM; top dose inferred
Procedure: as §1

OSU-03012 = compound: NCC(=O)Nc1ccc(-n2nc(C(F)(F)F)cc2-c2ccc3c(ccc4ccccc43)c2)cc1 [OSU-03012]; conditions: top dose 16 µM; top dose inferred
Procedure: as §1

5-Fluorouracil = compound: O=c1[nH]cc(F)c(=O)[nH]1 [5-Fluorouracil]; conditions: top dose 32 µM; top dose inferred
Procedure: as §1

QS11 = compound: OC[C@H](Cc1ccccc1)Nc1nc(Oc2ccc3c(c2)CCC3)nc2c1ncn2Cc1ccc(-c2ccccc2)cc1 [QS11]; conditions: top dose 10.24 µM
Procedure: as §1

Row | Cell Line | AUC (CUDC-101) | IC50 (CUDC-101) [nM] | AUC (AC220) | IC50 (AC220) [nM] | AUC (RDEA119; screen: GDSC drug entry 1526) | IC50 (RDEA119; screen: GDSC drug entry 1526) [nM] | AUC (JNK-9L) | IC50 (JNK-9L) [nM] | AUC (OSU-03012) | IC50 (OSU-03012) [nM] | AUC (5-Fluorouracil) | IC50 (5-Fluorouracil) [nM] | AUC (QS11) | IC50 (QS11) [nM] | AUC (RDEA119; screen: GDSC drug entry 1014) | IC50 (RDEA119; screen: GDSC drug entry 1014) [nM]
1 | DMS-53 (small cell lung carcinoma, adherent) | 0.927 | > 5120 | 0.988 | > 1020 | 0.974 | > 5000 | 0.71 | 1320 | 0.988 | > 16000 | 0.986 | > 32000 | 0.986 | > 10200 |  | 
2 | MEG-01 (chronic myeloid leukaemia, suspension) | 0.623 | 684 | 0.987 | > 1020 | 0.657 | 830 | 0.64 | 760 | 0.687 | 3210 | 0.603 | 3760 | 0.806 | 4860 | 0.614 | 629
3 | OVMIU (ovary, adherent) | 0.529 | 391 | 0.972 | > 1020 | 0.763 | 2230 | 0.542 | 428 | 0.859 | > 16000 | 0.658 | 6170 | 0.894 | > 10200 | 0.76 | 2170
4 | EJM (lymphoid neoplasm, semi-adherent) | 0.356 | 137 | 0.982 | > 1020 | 0.992 | > 5000 | 0.562 | 459 | 0.868 | 10800 | 0.858 | 19800 | 0.99 | > 10200 | 0.981 | > 5000
5 | HT (B-cell lymphoma, suspension) | 0.295 | 89.3 | 0.99 | > 1020 | 0.974 | > 5000 | 0.545 | 420 | 0.81 | 7570 | 0.786 | 12600 | 0.94 | > 10200 | 0.99 | > 5000
6 | DJM-1 (skin, adherent) | 0.973 | > 5120 | 0.989 | > 1020 |  |  | 0.858 | 4130 | 0.765 | 5800 | 0.955 | > 32000 | 0.957 | > 10200 | 0.855 | 3910
7 | LAN-6 (neuroblastoma, adherent) | 0.831 | 4110 | 0.931 | > 1020 | 0.803 | 3040 | 0.761 | 2150 | 0.768 | 7120 | 0.924 | > 32000 | 0.974 | > 10200 | 0.571 | 508
8 | SUIT-2 (pancreas, adherent) | 0.627 | 732 | 0.986 | > 1020 | 0.606 | 619 | 0.637 | 780 | 0.659 | 2840 | 0.633 | 4750 | 0.876 | > 10200 | 0.449 | 225
9 | NB1 (neuroblastoma, semi-adherent) | 0.903 | > 5120 | 0.97 | > 1020 | 0.908 | > 5000 | 0.528 | 384 | 0.855 | 14800 | 0.903 | > 32000 | 0.815 | 6370 | 0.864 | > 5000
10 | ARH-77 (myeloma, suspension) | 0.38 | 152 | 0.97 | > 1020 | 0.961 | > 5000 | 0.609 | 629 | 0.796 | 7170 | 0.504 | 2050 | 0.944 | > 10200 | 0.979 | > 5000
11 | ALL-SIL (T-cell leukaemia, suspension) | 0.166 | 37.8 | 0.928 | > 1020 | 0.975 | > 5000 | 0.652 | 790 | 0.666 | 2680 | 0.922 | > 32000 | 0.98 | > 10200 | 0.962 | > 5000
12 | VAL (B-cell lymphoma, suspension) | 0.257 | 64.3 | 0.975 | > 1020 |  |  | 0.627 | 720 | 0.68 | 3180 | 0.553 | 2790 | 0.831 | 6540 | 0.985 | > 5000
13 | DU-4475 (breast, suspension) | 0.415 | 196 | 0.991 | > 1020 | 0.247 | 69.5 | 0.602 | 575 | 0.707 | 3370 | 0.63 | 4240 | 0.665 | 1670 | 0.187 | 46.5
14 | P31-FUJ (acute myeloid leukaemia, suspension) | 0.666 | 819 | 0.995 | > 1020 | 0.762 | 1410 | 0.851 | 2570 | 0.902 | 12000 | 0.97 | > 32000 | 0.995 | > 10200 | 0.899 | 3670
15 | H3118 (head and neck, adherent) | 0.247 | 55.1 | 0.981 | > 1020 | 0.233 | 48 | 0.64 | 811 | 0.668 | 3090 | 0.687 | 7050 | 0.853 | 9210 | 0.304 | 83.2
16 | RKN (ovary, adherent) | 0.694 | 1160 | 0.983 | > 1020 | 0.414 | 179 | 0.65 | 857 | 0.851 | 13300 | 0.96 | > 32000 | 0.896 | > 10200 | 0.772 | 2040
17 | MFH-ino (soft tissue, adherent) | 0.614 | 699 | 0.983 | > 1020 | 0.788 | 2610 | 0.674 | 1070 | 0.411 | 544 | 0.946 | > 32000 | 0.694 | 2490 | 0.597 | 604
